Source: US11542311B2, “Fusion protein, preparation method therefor and application thereof in preparing ophthalmic disease treatment, anti-inflammation and anti-tumor medicament” (JIANGSU RONGTAI BIOTECH CO., LTD., priority 2017, dated 2023)
Marks after values point to notes of the source that are not given here.

Experiments:
[1] = test system: iris neovascularization in rabbits; experiment: Iris neovascularization in rabbits; assay type: in vivo; conditions: rabbit NVI model; 128 μg intravitreal once every 7 days for 2 weeks; third week
lung cancer cell A549 = experiment: MTT assay, proliferation of lung cancer cell A549; assay type: cell-based; conditions: 48 h
Method: (§1) The MTT assay was used to detect the inhibitory effect of the integrin blocker fusion protein obtained in Example 1 on the proliferation of various tumor cells, including melanoma cell B16F10, gastric cancer cell MGC-803, lung cancer cell A549, liver cancer cell Hep-G2, breast cancer cell MDA-MB-231, colon cancer cell HCT-116, human glioma U87, and cervical cancer cell Hela.
(§2) The tumor cells were cultured in a 5% CO2 incubator at 37° C. to a density of 90% or more, and collected by trypsinization. The cells were resuspended in the culture liquid and counted under a microscope. The cell concentration was adjusted to 3.0×10^4 cells/mL. The cell suspension was inoculated into a 96-well plate, 100 μL per well, and cultured overnight in a 5% CO2 incubator at 37° C. The fusion proteins I, II, and the positive drug Taxol were diluted with the culture liquid to respective predetermined concentrations. After the cells were fully adhered, each dilution was added to a 96-well plate, 100 μL per well, respectively. The integrin blocker fusion proteins I and II were added as an administration group, Taxol was used as a positive control group, and the culture liquid without any drug was used as a blank control group, and incubated in an 5% CO2 incubator at 37° C. for 48 hours. 20 μL of 5 mg/mL MTT was added to each well of a 96-well plate, and incubation was continued for 4 hours. The medium was aspirated and 100 μL of DMSO per well were added to dissolve. The absorbance was measured at 570 nm with a microplate reader with a reference wavelength of 630 nm, and the proliferation inhibition (PI) was calculated. The formula is as follows: […]
(§3) where Ntest is the OD value of the test group and Ncontrol is the OD value of the blank control group.
(§4) The test was repeated 5 times independently. The results obtained from the test were calculated as mean±SD, and statistical t-test was performed. P<0.05 was considered as significant difference, and P<0.01 was considered as an extremely significant difference.

[2] = test system: breast cancer cell MDA-MB-231; experiment: MTT assay, proliferation of breast cancer cell MDA-MB-231; assay type: cell-based; conditions: 48 h
Method: as §1, §2, §3, §4

tampon granuloma in rat = experiment: Subacute inflammation of tampon granuloma in rat; conditions: 64 mg/kg by injection every 5 days, day 7
[3] = test system: cervical cancer cell Hela; experiment: MTT assay, proliferation of cervical cancer cell Hela; assay type: cell-based; conditions: 48 h
Method: as §1, §2, §3, §4

[4] = test system: xylene-induced ear swelling in mice; experiment: Xylene-induced ear swelling in mice; assay type: in vivo, Kunming mice; conditions: for PI (%): ear swelling, mice; for Swelling degree: mouse ear, 2 h after xylene
Method: 80 Kunming mice were divided into 8 groups with 10 mice for each group and numbered. A physiological saline group was used as a blank control group, an aspirin group (200 mg/kg) was used as a positive control group, and fusion proteins I and II at high, medium and low doses (128, 32, 8 mg/kg) was used as the experimental groups. Mice were administered once by injection every 5 days. The blank control group was given an equal volume of physiological saline. On the fifth day after the administration, 0.05 mL of xylene was applied to both sides of the right ears of the mice to induce inflammation, and the left ears were not applied and were normal ears. After 2 h, the mice were sacrificed by dislocation, and the ears were cut along the auricle. Ear pieces were taken with a puncher and weighed, and the swelling degree and swelling rate were calculated. Swelling degree=right ear piece weight-left ear piece weight, swelling rate=(swelling degree/left ear piece weight)×100%.

[5] = test system: gastric cancer cell MGC-803; experiment: MTT assay, proliferation of gastric cancer cell MGC-803; assay type: cell-based; conditions: 48 h
Method: as §1, §2, §3, §4

[6] = test system: neovascularization in premature rat retinopathy model; experiment: Neovascularization in premature rat retinopathy model (oxygen-induced); assay type: in vivo; conditions: neonatal rat, 100 μg intravitreal day 7, day 14
[7] = test system: retinal blood vessels in OIR mice; experiment: Retinal blood vessels in OIR mice; assay type: in vivo, C57/B16 mice
[8] = 64 μg intravitreal day 13, evaluated day 17

B1: Protein I: Fc fusion protein Fc-IL4DM-HM3: IgG1-Fc, IL-4 and HM-3 joined by flexible (F) linker; SEQ ID NO: 1 (protein)
chain: [gap - human IgG1 Fc]GGGGSGGGGSGGGGSHKCDITLQEIIKTLNSLTEQKTLCTELTVTDIFAASKNTTEKETFCRAATVLRQFYSHHEKDTRCLGATAQQFHRHKQLIRFLKRLDRNLWGLAGLNSCPVKEANQSTLENFLERLKTIMDEKDSKCSSGGGGSGGGGSGGGGSIVRRADRAAVPGGGGRGD
[1]
  iris neovascularization (optical and electron microscope): could inhibit neovascularization and regress the formed blood vessels
Lung cancer cell A549; 1 μg/mL
  A570 nm/A630 nm: 0.6466 ± 0.0503
  PI (%): 4.14%
Lung cancer cell A549; 2 μg/mL
  A570 nm/A630 nm: 0.5947 ± 0.0173
  PI (%): 11.83%
Lung cancer cell A549; 4 μg/mL
  A570 nm/A630 nm: 0.5603 ± 0.0416
  PI (%): 16.93%
Lung cancer cell A549; 8 μg/mL
  A570 nm/A630 nm: 0.5225 ± 0.0293
  PI (%): 22.54%
Lung cancer cell A549; 16 μg/mL
  A570 nm/A630 nm: 0.4866 ± 0.0299
  PI (%): 27.86%
Lung cancer cell A549; 32 μg/mL
  A570 nm/A630 nm: 0.4395 ± 0.0124
  PI (%): 34.84%
Lung cancer cell A549; 64 μg/mL
  A570 nm/A630 nm: 0.3837 ± 0.0396
  PI (%): 43.11%
Lung cancer cell A549; 128 μg/mL
  A570 nm/A630 nm: 0.3263 ± 0.0218
  PI (%): 51.62%
Lung cancer cell A549; 256 μg/mL
  A570 nm/A630 nm: 0.2609 ± 0.0265
  PI (%): 61.32%
[2]; 1 μg/mL
  A570 nm/A630 nm: 0.8133 ± 0.0262
  PI (%): 5.77%
[2]; 2 μg/mL
  A570 nm/A630 nm: 0.7992 ± 0.0250
  PI (%): 7.40%
[2]; 4 μg/mL
  A570 nm/A630 nm: 0.7798 ± 0.0409
  PI (%): 9.65%
[2]; 8 μg/mL
  A570 nm/A630 nm: 0.7371 ± 0.0378
  PI (%): 14.60%
[2]; 16 μg/mL
  A570 nm/A630 nm: 0.6706 ± 0.0185
  PI (%): 22.30%
[2]; 32 μg/mL
  A570 nm/A630 nm: 0.6109 ± 0.0130
  PI (%): 29.22%
[2]; 64 μg/mL
  A570 nm/A630 nm: 0.5499 ± 0.0186
  PI (%): 36.29%
[2]; 128 μg/mL
  A570 nm/A630 nm: 0.4982 ± 0.0326
  PI (%): 42.28%
[2]; 256 μg/mL
  A570 nm/A630 nm: 0.4410 ± 0.0171
  PI (%): 48.91%
Tampon granuloma in rat
  Granuloma (mg)/Weight (100 g): 0.37 ± 0.09 mg/100 g
Tampon granuloma in rat; granuloma
  PI (%): 19.57%
[3]; 1 μg/mL
  A570 nm/A630 nm: 1.1729 ± 0.0183
  PI (%): 8.28%
[3]; 2 μg/mL
  A570 nm/A630 nm: 1.0658 ± 0.0295
  PI (%): 16.66%
[3]; 4 μg/mL
  A570 nm/A630 nm: 0.9739 ± 0.0238
  PI (%): 23.84%
[3]; 8 μg/mL
  A570 nm/A630 nm: 0.9526 ± 0.0166
  PI (%): 25.51%
[3]; 16 μg/mL
  A570 nm/A630 nm: 0.8248 ± 0.0105
  PI (%): 35.50%
[3]; 32 μg/mL
  A570 nm/A630 nm: 0.7109 ± 0.0119
  PI (%): 44.41%
[3]; 64 μg/mL
  A570 nm/A630 nm: 0.5643 ± 0.0265
  PI (%): 55.87%
[3]; 128 μg/mL
  A570 nm/A630 nm: 0.3629 ± 0.0215
  PI (%): 71.62%
[3]; 256 μg/mL
  A570 nm/A630 nm: 0.1461 ± 0.0350
  PI (%): 88.58%
[4]; 8 mg/kg
  PI (%): 7.21%
  Swelling degree: 6.18 ± 0.20 mg
[4]; 32 mg/kg
  PI (%): 21.77%
  Swelling degree: 5.21 ± 0.31 mg
[4]; 128 mg/kg
  PI (%): 37.09%
  Swelling degree: 4.19 ± 0.28 mg
[5]; 1 μg/mL
  A570 nm/A630 nm: 0.8701 ± 0.0456
  PI (%): 8.92%
[5]; 2 μg/mL
  A570 nm/A630 nm: 0.8301 ± 0.0343
  PI (%): 13.11%
[5]; 4 μg/mL
  A570 nm/A630 nm: 0.7531 ± 0.0236
  PI (%): 21.17%
[5]; 8 μg/mL
  A570 nm/A630 nm: 0.6859 ± 0.0395
  PI (%): 28.20%
[5]; 16 μg/mL
  A570 nm/A630 nm: 0.5692 ± 0.0222
  PI (%): 40.42%
[5]; 32 μg/mL
  A570 nm/A630 nm: 0.4365 ± 0.0239
  PI (%): 54.31%
[5]; 64 μg/mL
  A570 nm/A630 nm: 0.3068 ± 0.0398
  PI (%): 67.88%
[5]; 128 μg/mL
  A570 nm/A630 nm: 0.1696 ± 0.0431
  PI (%): 82.25%
[5]; 256 μg/mL
  A570 nm/A630 nm: 0.0945 ± 0.0249
  PI (%): 90.11%
[6]
  Nucleus number of vascular endothelial cells: 6.693 ± 2.109
[6]; listed as fusion protein I
  Nucleus number of vascular endothelial cells: 6.693±2.109
[7]; [8]
  Area (mm^2) of neovascular clusters: 0.111 ± 0.027* mm^2
  Reduce (%): 52.97%
[7]; 64 μg intravitreal day 13, evaluated day 17, listed as fusion protein I
  Reduce (%): 52.97%
